# Reference: publication PMC5836133
# Some of the results follow. At the low end of the ranking, values are background and their order means little.
# System: T1, GST-NbGlk1(82-244)
# T1 sequence: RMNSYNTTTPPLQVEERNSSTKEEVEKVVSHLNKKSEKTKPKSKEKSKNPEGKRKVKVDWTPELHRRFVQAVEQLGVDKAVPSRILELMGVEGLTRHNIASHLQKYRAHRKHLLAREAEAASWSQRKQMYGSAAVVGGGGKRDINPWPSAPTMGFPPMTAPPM
# Test: protein-binding microarray;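 note: rank-based score ranging −0.5 to +0.5 with E above 0.45 taken as significant binding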
# Conditions: NbGlk1 is a Golden2-like transcription factor of Nicotiana benthamiana; high values mean tight binding; most listed sequences are background and not binding sites; double strand, one strand shown
row,Sequence,binding signal [E-score]
1,ATGAGTAC,0.0213
2,AGAGTATA,0.159
3,AAGTGGTG,-0.047
4,AAGACGCA,-0.104
5,CACTTTTA,0.0879
6,AGTCAGTG,-0.0774
7,CAAGAAAA,-0.0381
8,AAGAGATT,0.4
9,ACCGCGCT,-0.109
10,ACCTCCCC,-0.154
11,ACAACTGT,-0.0865
12,AGTCGGAG,-0.168
13,ATCTGTCC,0.12
14,AAGGCGGA,-0.0824
15,CAAAATGG,-0.0703
16,ATGCAGCG,-0.0864
17,AGCCACCA,-0.137
18,ATCACTTG,0.125
19,AGCTTTCG,-0.154
20,ACGATGCT,0.00773
21,CAATGCAG,0.0004
22,AATCCCGT,0.366
23,AGCCGTCA,-0.173
24,AATTGCCG,0.0396
25,AATCAACA,0.259

row,Sequence,binding signal [E-score]
1,CACGTCGG,-0.277
2,AACGCGAC,-0.104
3,ACCCGGGA,-0.302
4,ATGATTAG,0.0672
5,ACAAATGC,-0.167
6,AGGGTTTA,-0.113
7,CAATAGAG,0.0743
8,ACTTCTTA,0.0387
9,ATGCCTTC,-0.102
10,ATGATGCG,-0.0231
11,AACTCTGC,-0.015
12,AGGACACG,-0.211
13,AGAGTGTA,0.0506
14,ACCCGGCC,-0.185
15,ACGATTAA,-0.00945
16,ACGAGTGC,-0.146
17,AATAGTAT,-0.048
18,ACGGATCT,0.265
19,ACTTTTCG,0.0842
20,ATAGAGAG,-0.0132
21,AACCCTAG,-0.0641
22,ATGGGTGA,-0.0382
23,ACGAATGG,-0.151
24,ACCCCGTG,-0.145
25,AAATGTCC,-0.152

row,Sequence,binding signal [E-score]
1,ACTAGACA,-0.00354
2,AGACTATC,-0.0535
3,ACGTGCAG,-0.0862
4,AAACCCGA,-0.104
5,ATAATAAG,0.093
6,AGGCAAAT,0.238
7,CAGCCGAA,-0.0499
8,ATAAACCG,-0.128
9,CACATCAG,-0.0143
10,ACGAAGCG,-0.122
11,AGGCTACG,-0.175
12,AGGAGACG,-0.256
13,AGCATATA,0.256
14,AATGGGGG,-0.154
15,AAGGGAGC,-0.104
16,ATTTAGTA,0.182
17,ACCTCGGC,-0.258
18,ACCTCGGG,-0.115
19,AATGGTGA,0.0927
20,AAATTCGT,0.192
21,CACTATCC,0.136
22,ATCGTCAC,0.0447
23,AGGATACC,0.2
24,AGGAGTGA,-0.113
25,ACGTCTTC,-0.0544

row,Sequence,binding signal [E-score]
1,AAAACAAA,0.0918
2,CAGCCCAC,-0.322
3,AAGTACAG,0.0433
4,CAACGCAC,-0.106
5,AGCTGTTA,-0.177
6,AAACCTAT,-0.0462
7,AATCGGCT,0.167
8,AGATTCAA,0.186
9,ACTCGAAG,-0.1
10,AAACAGTA,0.0525
11,AGTATTGA,0.0844
12,AGCCCAAG,-0.192
13,AGAGAATC,0.479
14,ACATGAAC,-0.073
15,ATGATGCA,-0.0354
16,ACTGATCC,-0.00118
17,AACCTACG,-0.124
18,ACCGTGAC,-0.197
19,AACGGCCA,-0.205
20,AATGCGAC,-0.183
21,ATACTTAC,0.139
22,AGGCAGGG,-0.256
23,ACTTACAA,0.0442
24,AGGGTGTC,-0.163
25,AATTAGAA,0.131

row,Sequence,binding signal [E-score]
1,AACGACTT,0.00665
2,CAATCGCC,0.124
3,AATTGGAA,0.0238
4,AAGTGCTC,-0.206
5,ATTGTCAC,0.057
6,AAATTCAG,0.208
7,ATCTGCAT,0.31
8,AGGATGCC,-0.189
9,AGTTGCTG,0.092
10,ACGGCTTG,-0.22
11,ATCCTCAA,0.322
12,AATCTGGT,0.443
13,ATACCTCC,-0.151
14,ACATGATC,0.126
15,AAGATCAA,0.245
16,AATCGCGT,0.352
17,AAAATATA,0.295
18,CACAAGGC,-0.297
19,CAGATTAG,0.0861
20,ATGGTATA,0.123
21,CAGCCTAG,-0.258
22,ACCTATAA,-0.0138
23,ACGCCTAG,-0.0881
24,AAATGGAG,-0.129
25,AAAGACAG,0.00442

row,Sequence,binding signal [E-score]
1,ATCCTAAG,0.145
2,ATGGTCGA,-0.148
3,AGACGTTC,-0.149
4,CACTTATG,0.0623
5,ACCAAAGA,0.208
6,ATCGGAAG,0.15
7,CACCGAGG,-0.184
8,ACAAACGG,-0.117
9,ACGGTAAG,-0.0887
10,ATAGTGGA,0.119
11,AAATCACC,0.333
12,AGAAAGTC,-0.0744
13,AGCTCCTC,-0.286
14,AAGTCTAG,-0.074
15,AAGTAGTC,-0.00185
16,AGAGTCCT,-0.22
17,AGGAAACT,-0.227
18,ATCTGGAA,0.351
19,AAGTGGGT,-0.189
20,ATGGATGC,-0.104
21,AAGTCTAA,-0.0366
22,CACGCGTC,-0.0216
23,ACAAAGCA,0.0816
24,CAGATCAC,0.171
25,ACTGTTGG,-0.0845

row,Sequence,binding signal [E-score]
1,ATAATGGC,-0.0522
2,CAATCAGG,0.294
3,ACAACCCC,-0.139
4,AGAGGAAG,-0.314
5,ATTAATCA,0.119
6,ACCCAGTG,-0.134
7,ATACCTAC,-0.0143
8,CAAACTGC,-0.213
9,AGAGATGC,-0.0595
10,CACTCCTC,-0.189
11,AGGATAGA,-0.0379
12,ACCGGGGG,-0.28
13,ATCTAAAC,0.238
14,AGGTCTCG,-0.307
15,ATGCATAG,0.043
16,ATCATACA,0.0613
17,ATGTCATC,-0.0391
18,ACGCGACG,-0.0867
19,AGCTTAAC,-0.129
20,ATTCGAGC,0.0972
21,AGACATAC,-0.0531
22,ATCGAAAC,0.185
23,ACCCCTCG,-0.103
24,CAGCGGCG,-0.253
25,CACACGCA,-0.0607

row,Sequence,binding signal [E-score]
1,AGTTATGC,0.0998
2,ACGGCTTA,0.00347
3,AGCTTCAT,-0.164
4,AGAGCTGG,-0.165
5,AATATGCC,-0.0147
6,AGGCCAGG,-0.262
7,AAAGCGTC,-0.0151
8,AGGTTGAA,-0.0627
9,ACCGCATG,-0.234
10,AATTTGTG,0.0667
11,AAATCTAC,0.441
12,ATAATGAG,0.0965
13,AAAAGGTG,-0.137
14,ACTTGACG,-0.0757
15,ATACGCAT,0.204
16,AGCGAAAG,-0.0853
17,AAGCATAA,-0.00533
18,AACTGGGG,-0.121
19,ATGTGTTA,-0.00268
20,ATCTGTCG,0.268
21,CAAGGGTA,-0.074
22,CAGCAAGA,0.0537
23,AGACTCTA,-0.144
24,ATAACCAG,-0.134
25,ACTGAGGC,-0.176

row,Sequence,binding signal [E-score]
1,AGAAGATC,0.383
2,AGCTCTTA,-0.073
3,CAAAGTGC,-0.195
4,ACCATGTG,-0.152
5,ATTGAATG,0.00382
6,AAATCCCC,0.368
7,ACCCGGAA,-0.0665
8,AGAGACTG,-0.0886
9,ACTGTAAT,0.312
10,AGAGCGAA,-0.0692
11,ATTTTTAG,0.235
12,ATGAGTAA,0.163
13,ATGTGCAC,-0.0286
14,AAACTGCG,-0.088
15,ACCTCAAC,-0.132
16,ATTATCTA,0.201
17,AGTCAGCA,-0.152
18,ATGCGCAA,0.173
19,AAGACGAG,-0.0393
20,AGACTGAA,0.0441
21,AACGCAAG,-0.0251
22,ATTCACAG,0.167
23,AGACGCTG,-0.0868
24,ATCGAACC,0.00528
25,ACAATTAG,0.131

row,Sequence,binding signal [E-score]
1,ATTTGCGG,0.195
2,AGTTAAAT,0.108
3,AGTAACCC,-0.117
4,ATGACAGA,-0.0801
5,ATATTAAA,0.17
6,CAATGGCA,-0.144
7,CACTCACA,-0.0926
8,ACCTAGTG,-0.182
9,AAACTTAG,-0.0923
10,AGGGTCGG,-0.188
11,ATATAGTG,0.0491
12,AGACTAGC,-0.174
13,ATTGTAGC,-0.0112
14,CACGAAGG,-0.151
15,AAGTCTCG,-0.178
16,CACAATCG,0.268
17,CAAATGGC,-0.223
18,ACTTCTAC,-0.0626
19,AAGATGAT,0.118
20,AACGGCGC,-0.0947
21,ACGCACGT,-0.013
22,ACAATGTG,-0.0911
23,AGTTTTCG,-0.0763
24,AGTGGTGC,-0.199
25,CAATTGCA,0.0611

row,Sequence,binding signal [E-score]
1,ACTATGCC,-0.0104
2,AATAGAAC,-0.0719
3,ATGGGGGC,-0.188
4,ACGGTAGC,-0.139
5,ACACATTC,0.113
6,ATCAGCAC,0.058
7,AACACTGC,-0.0212
8,ACTTGTTG,-0.0955
9,ATAGAGAT,0.276
10,AGCGTAAA,0.112
11,AAGGCCTT,-0.0125
12,ACGAAGCT,-0.164
13,ACTGAAAA,0.173
14,CAATACCG,-0.121
15,CACGAAAC,-0.0202
16,ACGTTGGC,-0.254
17,CAAACAGC,-0.0286
18,AATCAAGA,0.308
19,AAATAGTG,-0.0665
20,ACTGATGG,-0.0842
21,ATTTGGGC,0.0874
22,AGGCATCC,-0.184
23,AGTCCTTC,-0.204
24,AACAGCCC,-0.26
25,AGGGAGCG,-0.115

row,Sequence,binding signal [E-score]
1,ACTGAAGA,0.00037
2,CAAAAACA,-0.0472
3,ATCCGTAA,0.268
4,ATCATAGC,0.176
5,ATAACGGA,0.133
6,AAAGATGG,0.0109
7,ATGTGGAC,-0.272
8,ACGGGCCG,-0.291
9,AAGGGAAT,0.259
10,ACCTGATA,0.0967
11,ACCCTGTA,-0.162
12,AACCCGAC,-0.234
13,ACTATAGC,-0.124
14,AGTGTCGA,-0.107
15,AACACCCT,-0.207
16,ATCAGTGG,0.134
17,ACAAAATG,0.00095
18,AGATCCCG,0.32
19,CACCGTGG,-0.236
20,CAAATTCG,0.213
21,ACTAAAAA,0.0978
22,AATATGGG,0.144
23,ACCCATAC,-0.0861
24,ACACTATG,-0.00488
25,AAGGAACA,0.0128

row,Sequence,binding signal [E-score]
1,ATAAGATG,0.0394
2,CAATTTGG,0.00133
3,ATGCCGCG,-0.0364
4,CAGAAGAA,0.0167
5,CACGATCA,0.0745
6,AGGGATGG,-0.314
7,CAGCAAGC,-0.214
8,ACATCCCG,-0.00275
9,ACTTAAGC,-0.0934
10,ACTCAGCA,-0.159
11,AATCAGAC,0.166
12,ACATACCA,-0.125
13,AGCAAACG,-0.11
14,AGCCTTAA,-0.225
15,ATAACATC,0.0762
16,ACACTGCC,-0.236
17,AGGGCCAG,-0.121
18,ACACTAGA,0.111
19,CAAGAGTG,-0.138
20,ATAGATGG,-0.0288
21,CACAGGAC,-0.187
22,AGAGCCAA,-0.275
23,ACTGGAGC,-0.17
24,ACGCCTCG,-0.168
25,ATGGCGGC,-0.148

row,Sequence,binding signal [E-score]
1,ATCCCTAG,0.0811
2,ACAGGGGA,-0.0647
3,AGACAACG,-0.231
4,ACCCCCAC,-0.226
5,CAATTGAC,0.0641
6,ATATCGTG,0.348
7,AGGCCTAT,-0.248
8,AGCTAAAT,0.00967
9,ATCAAAGG,-0.0417
10,ATCGCCAA,0.206
11,ATATAGCA,0.145
12,ACAACCTC,-0.0571
13,ACCCGACA,-0.248
14,CAACTGAG,-0.0505
15,AAACCTTA,0.023
16,ACGGAGGC,-0.158
17,AATTGTTC,0.132
18,ATTTAAAA,0.188
19,AAGTCTCA,-0.0979
